Laboratory results from the RNAGym collection of RNA variant scans (doi:10.1073/pnas.2313332121).
Variants at the background level are over-represented here.

B1: TPR 5TU (parent)
chain: GGAUCUUCUCGAUCUAACAAAAAAGACAAAUCUGCCACAAAGCUUGAGAGCAUCUUCGGAUGCAGAGGCGGCAGCCUUCGGUGGCGCGAUAGCGCCAACGUUCUCAACUAUGACACGCAAAACGCGUGCUCCGUUGAAUGGAGUUUAUCAUG

Variants of: B1
Assay: polymerase ribozyme fitness, log enrichment relative to wild type (log ratio); higher = more active; in vitro selection for triplet polymerase activity
Outline: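 Mutant libraries of each subunit of a heterodimeric triplet polymerase ribozyme were built by PCR and transcribed. Each library went through one round of in vitro selection in triplicate: annealing with biotinylated primer, partner subunit and triplets, frozen incubation at −7 °C, gel excision of extended constructs, streptavidin-bead capture and RT-PCR. Input and output libraries were Illumina-sequenced; only genotypes with ≥10 input reads and ≥1 read per output were kept. Fitness is log2(genotype enrichment/wild-type enrichment), using inverse-variance-weighted replicate averages.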

| Variant | polymerase ribozyme fitness (log ratio) |
| --- | --- |
| GGAUCUUCUCGAUCUAACAAAAAAGACAAAUCUGCCACAAAGGUUGAGAGCAUCUUCGGAUGCAGAGGCGGCAGCCUUCUGUGACGCGAUAGAGCCAACGUUCUCAACUAUGACACGCAAAACGCGUGCUCCGCUGAAUGGAGUUUAUCAUG | ≤ -4.2 |
| GGAUCUUCUCGAUCUAACAAAAAAGACAAAUCUGCCACAAAGGUUGAGAGCAUCUUCGGAUGCAGAGGCGGCAGACUUCGGUGGCGCGAUUGCGCUAACGUUCUCAACUAUGACACGGAAAACGCGUGCUCCGUUGAAUGGAGUUUACCAUG | ≤ -4.2 |
| GGAUCUUCUCGAUCUAACAAAAAAGACAAAUCUGCCACAAAGGUUGAGAGCAUCUUCGGAUGCAGAGGCGGCAGCCUUCGGUUGCGCGAUAGCGCCUACGUUCCCAACUAUGACAUGCAAAACGCGUGCUCCGUUGCAUGGAGUUUAUCAUG | ≤ -4.2 |
| GGAUCUUCUCGAUCUAACAAAAAAGACAAAUCUGCCACAAAGGUUGAGAGCAUAAUCGGAUGCAGAGGCGGCGCCCUUCGGUGGCGCGAUAGCGCCAACGUUCUCAACUAUGACACGCAAAACCCGUGCUCCGUUGAAUGGAGUUUAUCAUG | ≤ -4.2 |
| GGAUCUUCUCGAUCUAACAAAAAAGACAAAUCUGCCACAAAGGUUGAGAGCAUCUUCGGAUGCAGAGGCGGCAGCCUUCGGUGGCGCGAUAGCGCAAACGUUCUCAACUAUGACACUCAUAACGCGUGCUCCAUUUAAUGGAGUUUAUCAUG | ≤ -4.2 |
| GGAUCUUCUCGAUCUAACAAAAAAGACAAAUCUGCCACAAAGAUUGAGAGCAUCGUCGGAUGCAGAGGCGGCAGCCUUCGGUGGCGCGAUAGCUCCAACGUUCUCAACUAUGACACGCAAUACGCGUGCUCCGUUGAAUGGAGUUUAUCAUG | ≤ -4.2 |
| GGAUCUUCUCGAUCUAACAAAAAAGACAAAUCUGCCACAAAGAUUGAGAGCAACUUAGGAUGCAGAGGCGGCAGCCUUCGGUGGCGCGAUAGCGUCAACGUUCUCAACUAUGACACGCAAAACGCGUGCUCCGUUGAAUGGAGUUUAUCAUG | ≤ -4.2 |
| GGAUCUUCUCGAUCUAACAAAAAAGACAAAUCUGCCACAAAGGUUGAGAGCAUCUUCGGAUGCAGAGGCGGCAGCCUUCGGUGGCGCGAUAGGGCCAACGUUCUCAACAAUGACACGCAAAACGCGCGCUCCGUUGAACGGAGUUUAUCAUG | ≤ -4.2 |
| GGAUCUUCUCGAUCUAACAAAAAAGACAAAUCUGCCACAAAGGUUGAGAGCAUUUUCGGAUGCAGCGGCGGCAGCCUUCGGUGGCGCGAUAGCACCAACGUUCUCAUCUAUGACACGCAUAACGCGUGCUCCGUUGAAUGGAGUUAAUCAUG | ≤ -4.2 |
| GGAUCUUCUCGAUCUAACAAAAAAGACAAAUCUGCCACAAAGGUUGAGAGCAUCUUCGGAUGCAGAGGCGGCAGCCUUCGGUGGCGUGAUAGCGCCAACGUUCUCAACGAUGACACGCAAAACGCGUGCUCCGUUGAAUGGAGUUUAUCAUG | ≤ -4.2 |
| GGAUCUUCUCGAUCUAACAAAAAAGACAAAUCUGCCACAAAGAUUGAGAGCAGCUGCGGAUGCAGAGGCGGCAGCCUUCGGUGGCGCGAUAGCGCCUACGUUCUCAACUAUGACACGCAAAACGCGUGCUCCGUUGGAUGGAGUUUAUCAUG | ≤ -4.2 |
| GGAUCUUCUCGAUCUAACAAAAAAGACAAAUCUGCCACAAAGGUUGAGAGCAUCUUCGGAUGCAGAGGCGGCAGCCUUCCGUGGCGCGAUAGCGCCAACGUUCUCAACUAUGACACGCAAAACGCGUGCUCCGUGGAAUGGAGUUUAUCAUG | ≤ -4.2 |
| GGAUCUUCUCGAUCUAACAAAAAAGACAAAUCUGCCACAAAGAUUGAGAGCAGCUUCGGAUGCUGAGGCGGCAGCCUUCGGUGGCGCGAUAGCGUCAACGUUCUCAACUUUGACACGCAAAACGCGUGCUCCGUUGAAUGGAGUUUAUCCUG | ≤ -4.2 |
| GGAUCUUCUCGAUCUAACAAAAAAGACAAAUCUGCCACAAAGGUUGAGACCAUCUUCGGAUACAGAGGCGGCAGCCUUCGGUGACGCGAUACCGCCAACGUUCUCAACUAUGACACGCAAAACGCGUGCUCCGUUGAAUGGAGUUUAUCAUG | ≤ -4.2 |
| GGAUCUUCUCGAUCUAACAAAAAAGACAAAUCUGCCACAAAGGUUGAGAGCAUCUUCGGAUGCUGGGGCGGCAGCCUUCGGUGGCGCGAUAGUGCCAACGUUCUGAACGAUGACACGCAAAACGCGUGCUCCGUUGAAUGGAGUUUAUCAUG | ≤ -4.2 |
| GGAUCUUCUCGAUCUAACAAAAAAGACAAAUCUGCCACAAAGGUUGAGAGGAUCUUCGGAUGCAGAGGCGGCAGCCUUCGGUGGCGCGAUAGGGCCAACGUUCUCAACUAUGACACGCAAAACGCGUGCUCCGUUGAAUGGAGUUUAUCAUG | ≤ -4.2 |
| GGAUCUUCUCGAUCUAACAAAAAAGACAAAUCUGCCACAAAGGUUGAGAGCAUGUUCGGAUGCAGAGGCGGCAGCCUUCGGUGGCGCGAUGGCGCCAACGUUCUCAACUAUGACACGCAAAACGCGUGCUCCGUUGAAUGGAGUUUAUCAUG | ≤ -4.2 |
| GGAUCUUCUCGAUCUAACAAAAAAGACAAAUCUGCCACAAAGGUUGAGAGCAUCUUCGGAUGCAGAGGCGGCGGCCUUCGGUGGCGCGAUAGUGCCAACGUUCUCAACUAUGACCCGCAAAACGCGUGCUCCGUUGAAUGGAGUUUAUCAUG | ≤ -4.2 |
| GGAUCUUCUCGAUCUAACAAAAAAGACAAAUCUGCCACAAAGGUUGAGAGCAUCUUCGGUUGCAGCGGCGGCAGCCUUCGGUGGCGCGAUAGUGCCAACGUUCUCAACUAUGACACGCAAAAGGCGUGCUCCGUUGAAUCGAGUUUAUCAUG | ≤ -4.2 |
